We go through 23 compounds from PubChem BioAssay AID2202238 (Ras Initiative Chemistry Research Team, Frederick National …, 2025).

The test concerns the target GTPase KRas (Homo sapiens) (UniProt P01116). Description: Covalent labelling of cysteine mutants by fragments, read by mass spectrometry (AID 2202238). Conditions: KRAS G12D cysteine mutants, disulfide tethering, MALDI-TOF labeling, stronger effect = higher value, fragment at 500 µM. Also on record: protein at 5 µM with 500 µM competing thiol for 1.5 h.
Where [1] appears, read: measured here: G60C mutant labeling.
[2] abbreviates: measured here: G75C mutant labeling.
Setting [3] is: measured here: H94C mutant labeling.
Setting [4] is: measured here: I36C mutant labeling.
Setting [5] is: measured here: L120C mutant labeling.
The mark [6] stands for this setting: measured here: M67C mutant labeling.
[7] abbreviates: measured here: M72C mutant labeling.
The mark [8] stands for this setting: measured here: N26C mutant labeling.
[9] abbreviates: measured here: N86C mutant labeling.
[10] abbreviates: measured here: P121C mutant labeling.
The mark [11] stands for this setting: measured here: S122C mutant labeling.
The mark [12] stands for this setting: measured here: S136C mutant labeling.

The list shows a part of the results. Shown are side measurements of this screen, not its main read-out; they come without a call.

UniProt P01116, sequence (P01116 whole entry, looked up, the tested form may be a part): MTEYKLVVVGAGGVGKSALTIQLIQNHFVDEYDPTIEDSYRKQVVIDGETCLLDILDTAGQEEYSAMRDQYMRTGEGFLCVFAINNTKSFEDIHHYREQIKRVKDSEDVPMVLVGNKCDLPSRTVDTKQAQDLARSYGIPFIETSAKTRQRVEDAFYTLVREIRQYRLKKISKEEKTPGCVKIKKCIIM

With `CCn1ncc(C(=O)NCCS)c1-c1ccccc1`, the percent labeling reads like this: under setting [1], 59.8%; under setting [2], 24.7%; under setting [3], 51.5%; under setting [4], 31%; under setting [5], 48.2%; under setting [6], 44.6%. For the same compound, the percent labeling worked out at 47.8% under setting [7]; 42.8% under setting [8]; 26.6% under setting [9]; 33.7% under setting [10]; 37.7% under setting [11]; 67.4% under setting [12].
`O=C(NCCS)C1CCN(S(=O)(=O)c2ccccc2C2CCCCC2)CC1`: the percent labeling worked out at 10.3% under setting [1]; 9.4% under setting [2]; 7% under setting [3]; 2.4% under setting [4]; 6.3% under setting [5]; 1.9% under setting [6]. The percent labeling runs as follows: under setting [7], 9.8%; under setting [8], 5.8%; under setting [9], 0%; under setting [10], 3.1%; under setting [11], 0%; under setting [12], 6.5%.
Turning to `O=C(NCCS)C1CC(=O)N(CCOc2ccccc2Cl)C1` (centres undefined), the percent labeling reads like this: under setting [1], 58%; under setting [2], 26.7%; under setting [3], 40.1%; under setting [4], 34%; under setting [5], 37.6%; under setting [6], 73.9%. Moreover, the percent labeling runs as follows: under setting [7], 46.9%; under setting [8], 38.7%; under setting [9], 22%; under setting [10], 36.4%; under setting [11], 27.9%; under setting [12], 61.5%.
Take `COc1cc(NC(=O)CCS)c(C(N)=O)cc1OC`: the percent labeling by setting is: under setting [2], 22.4%; under setting [3], 28.6%; under setting [4], 29.1%; under setting [5], 41.1%; under setting [6], 32.9%; under setting [7], 37.1%. Also, the percent labeling by setting is: under setting [9], 13%; under setting [10], 27.3%; under setting [11], 31.5%; under setting [12], 52%.
With `O=C(NCCS)C1CC(=O)N(Cc2ccco2)C1` (centres undefined), the percent labeling was 22% under setting [1]; 7% under setting [2]; 25.1% under setting [3]; 23.5% under setting [4]; 31.1% under setting [5]; 25.8% under setting [6]. Further, the percent labeling runs as follows: under setting [7], 12.7%; under setting [8], 27.7%; under setting [9], 15.8%; under setting [10], 26%; under setting [11], 22.3%; under setting [12], 42.4%.
Take `COc1ccc2c(c1)OC(C)(C)CN(C(=O)CCS)C2`: the percent labeling is 16.5% under setting [2]; 35.7% under setting [3]; 34.7% under setting [4]; 28.4% under setting [5]; 37% under setting [6]; 51.6% under setting [7]. The percent labeling is 22.4% under setting [9], 49% under setting [10], 29.5% under setting [11] and 60.8% under setting [12].
As to `Cc1cc(OC(F)F)c(C(=O)NCCS)s1`, the percent labeling worked out at 38.6% under setting [1]; 23.9% under setting [2]; 33.8% under setting [3]; 15.6% under setting [4]; 28.9% under setting [5]; 23.4% under setting [6]. Besides, the percent labeling reads like this: under setting [7], 40.2%; under setting [8], 35.9%; under setting [9], 22%; under setting [10], 22.6%; under setting [11], 20.1%; under setting [12], 36.4%.
Take `O=C(NCCS)c1ccc(C(F)(F)F)c(=O)[nH]1`: the percent labeling amounted to 41% under setting [1]; 20.1% under setting [2]; 27.6% under setting [3]; 18.7% under setting [4]; 55.8% under setting [5]; 21.2% under setting [6]. The percent labeling is, setting by setting: under setting [7], 42.4%; under setting [8], 37%; under setting [9], 31.5%; under setting [10], 29.3%; under setting [11], 41.7%; under setting [12], 45.2%.
On to `Cc1cc(NC(=O)CCS)nn1CC(N)=O`, for which the percent labeling by setting is: under setting [2], 11.4%; under setting [3], 23.6%; under setting [4], 26.9%; under setting [5], 30.6%; under setting [6], 25%; under setting [7], 18.9%. For the same compound, the percent labeling came out at 21.3% under setting [9], 31% under setting [10], 28.2% under setting [11] and 39.6% under setting [12].
Regarding `O=C(NCCS)c1c(C2CC2)nc2sccn12`, the percent labeling is, setting by setting: under setting [1], 46.8%; under setting [2], 34.4%; under setting [3], 55.4%; under setting [4], 27.2%; under setting [5], 36%; under setting [6], 43.5%. Also, the percent labeling is 70.7% under setting [7]; 54.7% under setting [8]; 35.2% under setting [9]; 28.8% under setting [10]; 31.4% under setting [11]; 67.8% under setting [12].
Turning to `O=C(CCS)NCC(O)(c1ncco1)C(F)(F)F` (centres undefined), the percent labeling under setting [2] amounted to 9.4%; the percent labeling under setting [3] came to 32.3%; the percent labeling under setting [4] amounted to 29.5%; the percent labeling under setting [5] is 31.9%; the percent labeling under setting [6] stood at 32.9%; the percent labeling under setting [7] was 13.7%. In addition, the percent labeling is 19.9% under setting [9], 35.5% under setting [10], 35.7% under setting [11] and 42.9% under setting [12].
Regarding `CC1(C(=O)NCCS)CCN(c2ccncc2)CC1`, the percent labeling under setting [1] turned out to be 55.5%; the percent labeling under setting [2] worked out at 12.6%; the percent labeling under setting [3] is 46.2%; the percent labeling under setting [4] was found to be 41.7%; the percent labeling under setting [5] came to 33.5%; the percent labeling under setting [6] is 62.6%. In addition, the percent labeling runs as follows: under setting [7], 31.2%; under setting [8], 50.8%; under setting [9], 36.6%; under setting [10], 33.3%; under setting [11], 35.6%; under setting [12], 55.2%.
As to `O=C(CCS)NC1(Cc2ccc(F)cc2)CC1`, the percent labeling under setting [2] came out at 13.5%; the percent labeling under setting [3] was 35.4%; the percent labeling under setting [4] was 40.7%; the percent labeling under setting [5] was 22.2%; the percent labeling under setting [6] worked out at 26%; the percent labeling under setting [7] was 38.1%. For the same compound, the percent labeling reads like this: under setting [9], 23.8%; under setting [10], 42.8%; under setting [11], 31.5%; under setting [12], 44.6%.
`O=C(NCCS)c1cncc(-c2ccc3c(c2)CCO3)c1`: the percent labeling under setting [1] worked out at 24.4%; the percent labeling under setting [2] is 16.1%; the percent labeling under setting [3] came out at 16.7%; the percent labeling under setting [4] was found to be 12.7%; the percent labeling under setting [5] turned out to be 18.2%; the percent labeling under setting [6] was 12.7%. Besides, the percent labeling was found to be 59.2% under setting [7]; 39.5% under setting [8]; 14% under setting [9]; 14.8% under setting [10]; 11.7% under setting [11]; 20.9% under setting [12].
`CN1Cc2ccc(CNC(=O)CCS)cc2C1`: the percent labeling turned out to be 0% under setting [2]; 17.5% under setting [3]; 35.3% under setting [4]; 12.5% under setting [5]; 35.5% under setting [6]; 8.6% under setting [7]. Further, the percent labeling reads like this: under setting [9], 7.5%; under setting [10], 19.7%; under setting [11], 21.3%; under setting [12], 44.2%.
On to `COc1cccc2c1CCN(C(=O)CCS)CC2`, for which the percent labeling under setting [2] came out at 23.3%; the percent labeling under setting [3] came out at 41.4%; the percent labeling under setting [4] is 30.5%; the percent labeling under setting [5] worked out at 32.7%; the percent labeling under setting [6] came out at 28.8%; the percent labeling under setting [7] is 54.1%. Further, the percent labeling under setting [9] stood at 31.1%, the percent labeling under setting [10] came to 27.4%, the percent labeling under setting [11] was determined as 30.2% and the percent labeling under setting [12] amounted to 56.2%.
For `Cc1ccc(CNC(=O)CCS)c(OC2CCCC2)c1`, the percent labeling by setting is: under setting [2], 7.2%; under setting [3], 20.9%; under setting [4], 17.5%; under setting [5], 15.5%; under setting [6], 14.1%; under setting [7], 29.2%. Moreover, the percent labeling turned out to be 22% under setting [9], 16.6% under setting [10], 14.2% under setting [11] and 33.4% under setting [12].
On to `CN(Cc1ccccc1C(F)(F)F)C(=O)CCS`, for which the percent labeling amounted to 26.4% under setting [2]; 45.2% under setting [3]; 27.4% under setting [4]; 34.7% under setting [5]; 31.9% under setting [6]; 46.9% under setting [7]. This compound also registered a percent labeling under setting [9] of 27.4%, a percent labeling under setting [10] of 29.1%, a percent labeling under setting [11] of 30.1% and a percent labeling under setting [12] of 51.2%.
For `Cc1cc(=O)[nH]c(N2CCN(C(=O)CCS)CC2)n1`, the percent labeling runs as follows: under setting [2], 9.3%; under setting [3], 28.2%; under setting [4], 36.1%; under setting [5], 34.4%; under setting [6], 35.7%; under setting [7], 13.1%. In addition, the percent labeling is, setting by setting: under setting [9], 21%; under setting [10], 30.2%; under setting [11], 29.6%; under setting [12], 55.5%.
Turning to `O=C(NCCS)C1CCCN(Cc2cccc(F)c2)C1` (centres undefined), the percent labeling by setting is: under setting [1], 46.4%; under setting [2], 15.9%; under setting [3], 40.5%; under setting [4], 34.1%; under setting [5], 36.7%; under setting [6], 53.2%. The percent labeling runs as follows: under setting [7], 38.3%; under setting [8], 45.7%; under setting [9], 29.1%; under setting [10], 31.5%; under setting [11], 28.2%; under setting [12], 52.3%.
Consider `O=C(CCS)NCCc1cc(-c2ccncc2)n[nH]1`, for which the percent labeling runs as follows: under setting [2], 15.6%; under setting [3], 28.7%; under setting [4], 47.2%; under setting [5], 24.4%; under setting [6], 41.8%; under setting [7], 22%. Further, the percent labeling turned out to be 13.2% under setting [9], 29.1% under setting [10], 24.1% under setting [11] and 42.1% under setting [12].
In the case of `O=C(NCCS)c1cncn1-c1ccccc1Cl`, the percent labeling stood at 55.5% under setting [1]; 23% under setting [2]; 49.3% under setting [3]; 31% under setting [4]; 49% under setting [5]; 40.4% under setting [6]. For the same compound, the percent labeling reads like this: under setting [7], 48.1%; under setting [8], 46%; under setting [9], 35.3%; under setting [10], 34.7%; under setting [11], 36.5%; under setting [12], 55.5%.
On to `CC(C)n1nc(C(=O)NCCS)c2ccccc2c1=O`, for which the percent labeling is, setting by setting: under setting [1], 33.6%; under setting [2], 18.7%; under setting [3], 29.1%; under setting [4], 13%; under setting [5], 19.7%; under setting [6], 23.5%. Also, the percent labeling turned out to be 43% under setting [7]; 33.6% under setting [8]; 16.4% under setting [9]; 17.4% under setting [10]; 17.3% under setting [11]; 38.4% under setting [12].
